Assay results from the BET-seq Pho4 binding data (Le et al. 2018).
Some of the results follow. The energies were worked out here from pooled read counts, against the library average; single values are noisy.

These sequences were tested against T1, Pho4 (S. cerevisiae) (UniProt P07270) (assay: relative binding free energy (BET-seq); higher = weaker binding). Conditions: reference: library average.
T1 sequence: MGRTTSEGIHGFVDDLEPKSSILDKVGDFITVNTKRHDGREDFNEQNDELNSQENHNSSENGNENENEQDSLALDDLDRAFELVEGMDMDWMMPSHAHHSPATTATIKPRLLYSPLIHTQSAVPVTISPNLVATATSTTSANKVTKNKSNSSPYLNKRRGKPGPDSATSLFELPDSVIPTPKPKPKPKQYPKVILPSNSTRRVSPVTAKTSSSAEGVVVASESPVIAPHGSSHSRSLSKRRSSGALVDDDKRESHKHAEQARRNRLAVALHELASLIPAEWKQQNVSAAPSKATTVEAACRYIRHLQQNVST
For TGTGGCACGTGTGGGA, the “relative binding free energy” value was -0.08 kcal/mol. For ATTTGCACGTGTTGGC, the “relative binding free energy” value was 0.04 kcal/mol. For GGCTGCACGTGGTCTG, the “relative binding free energy” value was -0.02 kcal/mol. With TATCTCACGTGTTGAA the “relative binding free energy” value was 0.25 kcal/mol. In the case of ATATTCACGTGCTTTT, the “relative binding free energy” value is reported as 0.04 kcal/mol. For GCAGTCACGTGCGGGG, the “relative binding free energy” value was 0.13 kcal/mol. For GTATTCACGTGGAAGG, the “relative binding free energy” value was 0.22 kcal/mol. With TTTTTCACGTGGGGAC the “relative binding free energy” value was 0.22 kcal/mol. In the case of AAGAGCACGTGTGAGT, the “relative binding free energy” value is reported as -0.1 kcal/mol. In the case of AGGGTCACGTGAACTG, the “relative binding free energy” value is reported as 0.24 kcal/mol. In the case of AATGGCACGTGTCTAG, the “relative binding free energy” value is reported as -0.08 kcal/mol. For GATGGCACGTGGACTT, the “relative binding free energy” value was 0.1 kcal/mol. In the case of TGTATCACGTGTATGT, the “relative binding free energy” value is reported as 0.14 kcal/mol. TTGTTCACGTGGAGCG was tested, and the “relative binding free energy” value was 0.21 kcal/mol. For ATTCTCACGTGAGTGG, the “relative binding free energy” value was 0.26 kcal/mol. For TGTATCACGTGGGACT, the “relative binding free energy” value was -0.05 kcal/mol. For AAGGCCACGTGTTTGG, the “relative binding free energy” value was -0.21 kcal/mol. AGTGTCACGTGGGCTT was tested, and the “relative binding free energy” value was -0.17 kcal/mol. With CTGTACACGTGGAGGG the “relative binding free energy” value was -0.04 kcal/mol. With GGATTCACGTGGGCGA the “relative binding free energy” value was 0.37 kcal/mol. In the case of CAGGTCACGTGCGGGG, the “relative binding free energy” value is reported as -0.01 kcal/mol. For TTGTACACGTGTGCTT, the “relative binding free energy” value was 0.21 kcal/mol. For AATACCACGTGTTGGT, the “relative binding free energy” value was 0.03 kcal/mol. With GGGTGCACGTGAATGT the “relative binding free energy” value was 0.32 kcal/mol. For TTCGGCACGTGTCTTT, the “relative binding free energy” value was -0.06 kcal/mol. With CGTCTCACGTGAGTTT the “relative binding free energy” value was 0.45 kcal/mol. For ATTTGCACGTGCTGTA, the “relative binding free energy” value was 0.02 kcal/mol. In the case of AGTATCACGTGAAAGT, the “relative binding free energy” value is reported as 0.53 kcal/mol. For ATAGGCACGTGGGTGA, the “relative binding free energy” value was -0.17 kcal/mol. With AGCGTCACGTGAGGGT the “relative binding free energy” value was 0.24 kcal/mol. For TGGGTCACGTGTCTTG, the “relative binding free energy” value was 0.22 kcal/mol. For TTCTGCACGTGGGGCT, the “relative binding free energy” value was -0.1 kcal/mol. With GGTTTCACGTGAAGAC the “relative binding free energy” value was 0.49 kcal/mol. In the case of GTGGACACGTGGGAAA, the “relative binding free energy” value is reported as 0.01 kcal/mol. For ATATTCACGTGGTCGT, the “relative binding free energy” value was 0.14 kcal/mol. With ATGGCCACGTGACGGG the “relative binding free energy” value was 0.01 kcal/mol. For TCGTGCACGTGGCGGC, the “relative binding free energy” value was -0.08 kcal/mol. For TGGGGCACGTGTGACG, the “relative binding free energy” value was -0.09 kcal/mol. For ATTAGCACGTGCTTAT, the “relative binding free energy” value was -0.11 kcal/mol. TGTTGCACGTGACTCG was tested, and the “relative binding free energy” value was 0.12 kcal/mol. In the case of AGTTGCACGTGACGTG, the “relative binding free energy” value is reported as 0.09 kcal/mol. With CAGTGCACGTGTGGAA the “relative binding free energy” value was 0.09 kcal/mol. In the case of CGGTGCACGTGGGTGT, the “relative binding free energy” value is reported as -0.2 kcal/mol. ATATGCACGTGGGATT was tested, and the “relative binding free energy” value was -0.2 kcal/mol. In the case of TTCTTCACGTGCTAGG, the “relative binding free energy” value is reported as 0.2 kcal/mol. In the case of GGAGACACGTGGAATT, the “relative binding free energy” value is reported as 0.24 kcal/mol. In the case of ATGTGCACGTGACTGG, the “relative binding free energy” value is reported as 0.02 kcal/mol. AGGCTCACGTGGAGTA was tested, and the “relative binding free energy” value was 0.2 kcal/mol. In the case of GTTTTCACGTGTCTTT, the “relative binding free energy” value is reported as 0.4 kcal/mol. For CGTATCACGTGGCTGG, the “relative binding free energy” value was 0.12 kcal/mol. In the case of GAAGGCACGTGATTAA, the “relative binding free energy” value is reported as 0.13 kcal/mol. With TTTGGCACGTGGTTGT the “relative binding free energy” value was -0.09 kcal/mol. With GTATGCACGTGGGTAT the “relative binding free energy” value was -0.07 kcal/mol. With GCGGGCACGTGGGCGG the “relative binding free energy” value was -0.23 kcal/mol. In the case of AAATGCACGTGGTTGG, the “relative binding free energy” value is reported as -0.04 kcal/mol. For TTTTCCACGTGGGAGT, the “relative binding free energy” value was -0.09 kcal/mol. With AGATGCACGTGTCTGG the “relative binding free energy” value was -0.04 kcal/mol. In the case of TGTGGCACGTGTAGCA, the “relative binding free energy” value is reported as -0.02 kcal/mol. ATGATCACGTGTCAGG was tested, and the “relative binding free energy” value was 0.18 kcal/mol. GATGGCACGTGTCGCG was tested, and the “relative binding free energy” value was -0.02 kcal/mol. GCTGTCACGTGTTAAG was tested, and the “relative binding free energy” value was 0.13 kcal/mol. GTTGTCACGTGTGCCA was tested, and the “relative binding free energy” value was 0.15 kcal/mol. For GGTAGCACGTGTCGGT, the “relative binding free energy” value was 0.15 kcal/mol.
